Laboratory results reported in PubChem BioAssay AID463173 (ICCB-Longwood Screening Facility, Harvard Medical School, 2010).
Hit rate of the full screen: of about 52,000 compounds, about 4,300 (8.3%) were called active. No stated cut-off is given here; in the data, active means survival mostly below about 52% (no sharp cut-off); inactive means mostly above about 56%. The list shows a part of the results.

What follows are compounds tested on DeltatarO mutant (assay: S. aureus survival, RN4220 and DeltatarO strains – OD600, teichoic acid synthesis inhibitors, primary screen (AID 463173)). Settings: S. aureus RN4220 wild type/DeltatarO growth, OD600, 18 h, active compounds read low, screened at 18.75 µg/mL (by protocol).

SMILES | survival
CC1=C(C(=O)OC(C)C)C(C)C(C(=O)OC(C)C)=C(C)N1 | inactive: 79%
COc1cccc(CN2C(=O)CN(C3CCCCC3)C(=O)C2c2ccc(OC)c(OC)c2)c1 (stereo unspecified) | inactive: 67%
CCOc1ccc(CNC(=O)C2CCN(S(=O)(=O)c3cn(C)cn3)CC2)cc1OC | inactive: 71%
COc1ccc2c(c1)c1c(c(=O)n(-c3ccccc3C)c(=O)n1CC(=O)N1CCCC1)n2C | inactive: 117%
COc1ccc(-c2cc(C(F)(F)F)c(C#N)c(SCC(=O)Nc3ccccc3F)n2)cc1 | inactive: 67%
CCC(C)Sc1c(C(C)C)cnc2c1c(=O)n(C)c(=O)n2C (stereo unspecified) | inactive: 100%
CCc1nnc(NC(=O)CCC(=O)N2CCC(O)CC2)s1 | inactive: 88%
COc1ccc(-c2nc3scc(CCNC(=O)c4cc(OC)cc(OC)c4)n3n2)cc1 | inactive: 94%
CC(C)N1CCc2nc(SCC(=O)Nc3cccc(F)c3)[nH]c(=O)c2C1 | inactive: 86%
Nc1cc(N)nc(Sc2ncnc3ccccc23)n1 | inactive: 85%
CCOc1ccc(C(=O)OCc2cc(=O)n3cc(C)sc3n2)cc1 | inactive: 90%
O=C(O)CSCCc1ccccn1 | inactive: 72%
CCCCCn1cc2c(c1-c1ccc(Cl)cc1)c(=O)n(C)c(=O)n2C | inactive: 84%
COc1ccc2c(c1)C=C(C(=O)NCc1cc(Br)ccc1OC)CO2 | inactive: 73%
CCOC(=O)C1CCCN(S(=O)(=O)c2ccc3[nH]c(=O)oc3c2)C1 (stereo unspecified) | inactive: 84%
COc1ccccc1NC(=O)c1sc2ncn(Cc3ccccc3Cl)c(=O)c2c1C | inactive: 99%
CCc1ccccc1NC(=O)c1sc(-n2nc(C)c(Cc3ccc4c(c3)OCO4)c2C)nc1C | inactive: 97%
O=C(Cn1c2ncccc2c(=O)n1-c1ccccc1)Nc1ccc(Cl)cc1C(F)(F)F | inactive: 90%
COCc1cc(C)nc2sc3c(c12)NC(c1ccc(O)cc1)N(c1ccc(C)cc1)C3=O (stereo unspecified) | inactive: 60%
O=C(OCc1cccc(C(F)(F)F)c1)c1ccc(-c2nnn(Cc3ccc(F)cc3)n2)cc1 | inactive: 71%
CCn1c(=N)c(C(=O)NC2CCCC2)cc2c(=O)n3ccccc3nc21 | inactive: 49%
Cc1nn(C(=O)c2ccccc2)c(C)c1S(=O)(=O)N1CCCCCC1 | inactive: 89%
CCN(C(=O)c1cn(-c2ccc(OC)cc2)c(=O)c2ccccc12)c1cccc(Cl)c1 | inactive: 103%

SMILES | survival
O=C(CSC1=Nc2ccccc2N=C(c2ccc(F)cc2)C1)NCc1ccccc1Cl | inactive: 95%
CCCCOc1ccc(CNC(=O)Cc2ccc(NC(=O)N3CCSc4ncccc43)cc2)cc1 | inactive: 119%
CCNc1oc(-c2ccc(COc3ccc(Cl)cc3)o2)nc1C#N | inactive: 82%
Cc1nn(-c2ccc(N3CCOCC3)nn2)c(C)c1CCC(=O)NCc1ccccc1F | inactive: 85%
Cc1cc(N(C(=O)Cn2nnc3ccccc32)C(C(=O)NCC2CCCO2)c2ccc(F)cc2)ccc1-n1cnnn1 (stereo unspecified) | inactive: 59%
O=C(O)CC1NC(=S)N(Cc2ccccc2)C1=O (stereo unspecified) | inactive: 91%
CCOc1ccc(CNC(=O)c2sc3ncnc(N(C)C4CCCCC4)c3c2C)cc1 | inactive: 98%
COC(=O)c1cccc(Nc2nn3c(=O)c4cc5c(cc4nc3s2)OCO5)c1 | inactive: 63%
COc1ccc(S(=O)(=O)NCC(c2ccc(N(C)C)cc2)N2CCOCC2)cc1 (stereo unspecified) | inactive: 69%
COc1ccc(-c2[nH]c3ccccc3c2SCCNC(=O)c2ccc(S(=O)(=O)N(C)C)cc2)cc1 | inactive: 67%
Cc1ccc2[nH]c3c(=O)n(CC(=O)NC(C)C)ncc3c2c1 | active: 6%
CCOC(=O)c1ccc(NC(=O)CCc2c(C)nc3c(-c4ccc(F)cc4)c(C)nn3c2C)cc1 | inactive: 61%
Cc1ccccc1C(=O)Nc1ccc(C(=O)OCc2cc(=O)n3nc(C(C)C)sc3n2)cc1 | inactive: 91%
O=C1CC(c2ccc3c(c2)OCO3)CC2=C1C(c1ccncc1)Nc1ccccc1N2 (stereo unspecified) | inactive: 104%
COc1ccc(NC(=O)C2Cc3ccccc3N2C(=O)c2ccccc2)cc1OC (stereo unspecified) | inactive: 98%
Cc1ccc(-c2onc(C)c2C)cc1S(=O)(=O)Nc1ccc(Cl)cn1 | inactive: 97%
COc1ccc(CNC(=O)c2cc3cccc4c3n2CC(C)S4)c(OC)c1 (stereo unspecified) | inactive: 122%
O=C(CSc1ncc(CO)n1Cc1ccc(Cl)cc1)NCc1ccc(F)cc1 | inactive: 55%
COc1ccc(C(=O)Oc2cc(-c3ccc4c(c3)OCO4)cc(=O)c3c(C)oc(C)c23)cc1 | inactive: 113%
Cc1ccc(Cl)cc1NC(=O)CSc1nc2c(c(=O)[nH]1)CN(Cc1ccccc1)CC2 | inactive: 72%
COc1ccc(S(=O)(=O)N2CCN(CC(=O)Nc3ccc(Cl)c(C(F)(F)F)c3)CC2)cc1 | inactive: 71%
O=C(CC12CC3CC(CC(C3)C1)C2)N1CCCOC1 | inactive: 60%
O=S(=O)(Nc1cc(Sc2ncn[nH]2)c(O)c2ccccc12)c1cccs1 | inactive: 91%

SMILES | survival
COc1ccc(-c2ccc(NS(=O)(=O)c3cccc(Cl)c3)cc2)nn1 | inactive: 89%
Cc1ccccc1CNC(=O)c1ccc(Cn2c(SCc3cccc(F)c3)nc3cccnc32)cc1 | inactive: 89%
CCOC(=O)c1nc(Nc2ccc(C(=O)OCC(C)C)cc2)c2ccccc2n1 | inactive: 61%
O=C1CSC(c2ccccc2)N1Nc1nc(N2CCOCC2)nc(N2CCOCC2)n1 (stereo unspecified) | inactive: 101%
O=C(CCc1cn(Cc2ccccc2F)c2ccccc12)NCc1ccc(Cl)cc1 | inactive: 83%
CCOc1ccc(NC(=O)C2CCN(S(=O)(=O)c3cc(-c4noc(C)n4)ccc3C)CC2)cc1 | inactive: 130%
Cc1ccsc1/C=N/NC(=O)CO | inactive: 105%
O=C(O)CCC(=O)NC(c1ccccc1)c1ccccc1 | inactive: 96%
CSc1cccc(-c2nnc(NC(=O)c3ccc4c(c3)OCCO4)o2)c1 | inactive: 72%
CN(Cc1ccccc1)C(=O)COc1ccc(S(=O)(=O)N2CCCC2)cc1 | inactive: 89%
CC(C)CC(=O)NCc1nc2cccnc2n1Cc1ccccc1 | inactive: 78%
Cc1ccc(-c2cc(C(F)(F)F)n3nc(-c4ccc(Cl)cc4)cc3n2)cc1 | inactive: 51%
COc1ccc(CNC(=O)C2CCN(Cc3nc(-c4ccc(OC)c(OC)c4)oc3C)CC2)cc1 | inactive: 119%
COc1cccc(OC)c1C(=O)Nc1nnc(C)s1 | inactive: 55%
Cc1ccc(N(CC(C)C)S(=O)(=O)c2nnc(NC(=O)c3ccco3)s2)cc1 | active: 44%
Cc1ccc2oc(C(=O)N(Cc3cccc(F)c3)C3CCS(=O)(=O)C3)c(C)c2c1 (stereo unspecified) | inactive: 76%
COc1ccc(N2CCN(C(=O)c3cc(S(=O)(=O)N4CCCCCC4)cn3C)CC2)cc1 | inactive: 80%
CN1CCN(CCCC(=O)c2ccc(F)cc2)CC1 | inactive: 101%
COc1cccc(NC(=O)N2CCC(n3c(C)nc4cccnc43)CC2)c1 | inactive: 83%
COc1cccc(Cn2c(=O)n(-c3ccc(C)c(F)c3)c(=O)c3sc4ccccc4c32)c1 | inactive: 72%
CN(C)c1ccc(C(C(=O)NC2CCCCC2)N(Cc2ccco2)C(=O)Cc2c[nH]c3ccccc23)cc1 (stereo unspecified) | inactive: 65%
OC(CN1CCCCC1)CN(c1ccccc1)c1ccccc1 (stereo unspecified) | inactive: 83%
O=S(=O)(NCc1ccco1)c1ccc(Cl)cc1 | inactive: 77%

SMILES | survival
O=C(NC1CC(=O)N(c2cccc(F)c2)C1)c1ccc(S(=O)(=O)N2CCOCC2)cc1 (stereo unspecified) | inactive: 76%
Cc1ccc(NC(=O)Cn2c(=O)oc3ccccc32)cc1Cl | inactive: 81%
COc1ccccc1CN1COc2ccc3c(C)cc(=O)oc3c2C1 | inactive: 93%
CCOC(=O)c1ccc(NC(=O)CSc2ccc(-c3sc(C)nc3C)nn2)cc1 | active: 37%
COc1cc(/C=C(\C#N)C(=O)Nc2ccc(S(N)(=O)=O)cc2)ccc1O | inactive: 97%
COc1ccccc1N1CCN(C(=O)c2sc3nc4n(c(=O)c3c2C)CCC4)CC1 | inactive: 69%
CC(=O)N1C(Nc2ccc(C)cc2)CCN1c1ccccc1 (stereo unspecified) | inactive: 81%
CCOc1ccc(C(=O)c2cn(Cc3ccccc3OC)c3cc4c(cc3c2=O)OCCO4)cc1 | inactive: 83%
CCCCN(CC)CCNC(=O)c1cn(CCOC)c(=O)c2c1c1ccccc1n2C | inactive: 88%
CCC(=O)N1CCc2cc(S(=O)(=O)CCC(=O)Nc3ccc(Cl)c(C(F)(F)F)c3)ccc21 | inactive: 76%
COc1ccc(NC(=O)CSc2oc(-c3cccs3)nc2S(=O)(=O)c2ccc(Br)cc2)c(OC)c1 | inactive: 57%
O=C(CN1CCC(NC(=O)C2CCCCC2)CC1)Nc1cccc(F)c1 | inactive: 102%
CC(=O)NS(=O)(=O)c1ccc(NC(=O)c2ccc(C)c(C)c2)cc1 | inactive: 98%
C(=N\C(/N=C/c1cccs1)c1cccs1)/c1cccs1 | inactive: 72%
Cc1nc2ccn(Cc3cccs3)c(=O)c2cc1C(=O)NCc1ccccc1 | inactive: 78%
CCc1nonc1NC(=O)c1oc2cc(C)c(Cl)cc2c1C | inactive: 75%
Cc1cccc(Cn2cc(C(=O)c3ccccc3)c(=O)c3cc4c(cc32)OCO4)c1 | inactive: 96%
Cc1ccc(Nc2sc(C(=O)c3ccccc3)c(N)c2C(=O)NC(C)C)cc1 | inactive: 75%
COc1ccc(C(=O)c2oc3ccccc3c2NC(=O)c2ccc(F)cc2)cc1 | inactive: 73%
O=C(c1cn(CCOc2ccccc2F)c2ccccc12)C1CCCCC1 | active: -2%
CCN(CC)C(=O)C(C(F)(F)F)C(F)(F)F | inactive: 63%
Fc1ccccc1CSc1nnc2c(n1)[nH]c1ccccc12 | inactive: 85%
